In US6130250A, “Veterinary use of a pleuromutilin derivative” (priority 1996, dated 2000):
Where a name gives a salt, the structure may show the parent alone. Read-outs that look alike come from different tables or passages of the source.

Tested on: M. hyopneumoniae
Assay: Development of resistance (habituation study), MIC before and after passages
Assay type: cell-based, Mycoplasma hyopneumoniae
Conditions: for MIC: Mesomycoplasma hyopneumoniae
Procedure: Mycoplasma hyopneumoniae reference strain NCTC 10110 (obtained from the National Collection of Type Cultures, London, UK) and a recent field isolate (MEVT G23), are grown aerobically at 36° C. in Mycoplasma glucose broth containing phenol red until an acid colour change occurs. After addition of sterile glycerol (5% v/v) the cultures are dispensed in 1 ml aliquots and frozen at -70° C. These cultures are used to initiate further broth cultures which are titrated to obtain the number of colour changing units (ccu) in microtitre plates after incubation (36° C.). Replication allows challenge of antibiotic dilutions with predetermined numbers of ccu in minimal inhibitory concentration (MIC) tests and in the primary passage in habituation studies.
A commercially available medium (Mycopiasma Experience Ltd.) containing glucose and phenol red (MEGB) is used at pH 7.6.
Stock test compound solutions are prepared at 1000 μg/ml in deionized water. After vortexing, the solutions are sterilized by filtration through 0.2μ pore size membrane filters (Sartorius Minisart, N). For use in the MIC tests the stock solutions are diluted in mycoplasma broth to double the final concentrations required. In habituation studies the stock solutions are dispensed in 1 ml aliquots and frozen at -20° C. These are thawed and used at 5 day-7 day intervals to prepare ranges of concentrations of drug (doubling series) in MEGB, in 1.9 ml aliquots, covering the MICs against both strains of M. hyopneumoniae. Oxytetracycline hydrochloride is prepared fresh on each occasion. The dilution ranges are gradually changed from passage to passage to allow for the development of resistance in the mycoplasmas.
MIC tests are carried out by the method of Tanner & Wu, Avian Diseases 36 (1992) 714-717 before carrying out the habituation study (below) and after the 10th passages 0.1 ml aliquots of the compound dilution are mixed with 0.1 ml aliquots of the challenge inocula, containing between 10^3 and 10^5 colour changing units (ccu) per ml, in microtitre wells. Each microtitre plate contains uninoculated medium, medium at pH 6.8 (end-point-control) and drug-free inoculated challenge controls. All plates are sealed and incubated aerobically at 36° C. MICs are recorded when the colour change in the challenge control wells match the pH 6.8 control (orange-yellow). The MIC is the lowest concentration to show no colour change.
Habituation study: In the primary passage experiment, 1.9 ml volumes of antibiotic solutions at concentrations covering the MIC of the M. hyopneumoniae strain under test, are inoculated with 0.1 ml of broth culture containing between 10^3 ccu/ml to 10^5 ccu/ml. A growth control consisting of drug-free broth inoculated with M. hyopneumoniae and an uninoculated medium control are included in each passage experiment. After 7 days incubation (36° C.) the two highest concentrations of drug-containing broth showing an acid colour change are pooled and used to inoculate a fresh series of drug dilutions in mycoplasma broth (0.1 ml culture into 1.9 ml drug-containing broth). This process is repeated every 5-7 days for up to 10 passages. When the mycoplasma strains become resistant to particular antibiotics, or at the 10th passage, each strain is grown once more in drug-containing broth and the MICs determined.

[1] = NCTC10110, read-out: Pre-passage MIC

Structure (SMILES) | MIC (NCTC10110, read-out: Post-passage MIC up to P10/P11) [µg/mL] | MIC [1] [µg/mL] | MIC (read-out: Post-passage MIC up to P10/P11) [µg/mL] | MIC (read-out: Pre-passage MIC) [µg/mL] | Post-passage MIC up to P10/P11 (NCTC 10110) [µg/mL] | Resistance increase (NCTC 10110, up to P10/P11) [fold] | Post-passage MIC up to P10/P11 (field isolate) [µg/mL] | Resistance increase (field isolate, up to P10/P11) [fold] | resistance development in words (M. hyopneumoniae strains, in vitro passages) | MIC (NCTC10110, read-out: Post-passage MIC) [µg/mL] | MIC (read-out: Post-passage MIC) [µg/mL] | Resistance increase (NCTC 10110, after 8 passages) [fold] | passages within which marked resistance developed (field isolate) [passages] | Resistance increase (field isolate, after 8 passages) [fold]
CN(C)C1C(=O)C(C(N)=O)=C(O)C2(O)C(=O)C3=C(O)c4c(O)cccc4C(C)(O)C3C(O)C12 (stereo not shown) [Oxytetracycline hydrochloride] | 1 | 0.25 | 1 | 0.25 | 1 | 4 | 1 | 4 | – | – | – | – | – | –
CCC1OC(=O)CC(O)C(C)C(OC2OC(C)C(OC3CC(C)(O)C(O)C(C)O3)C(N(C)C)C2O)C(CC=O)CC(C)C(=O)C=CC(C)=CC1COC1OC(C)C(O)C(OC)C1OC (stereo not shown) [Tylosin tartrate] | – | 0.25 | – | 0.125 | – | – | – | – | marked resistance developed | > 500 | 62.5 | > 2000 | ≤ 8 | 500
